Consider 167 variants from the RNAGym collection of RNA variant scans (doi:10.7554/elife.90254).

The source gives no read counts; variants with many changes may rest on few reads.

B1: LINE1-full (parent)
chain: UACGUAGGUGGUUUUCCCCUGAUAGUGCUAAGGGGGCCUGGAAGUUUGGACUGGGCAGAGCUCAACACAGCGUGGCAAAGUGGCUGUGGCUAGACUGCCUCUCUGGAUUCCUCGUCACUCAGCAGGGCAUCUCUGAGAGAAAUGCC

The series covers variants of B1. The experiment in a line: self-cleavage, relative activity (ratio to wild type); higher = more cleavage; in vitro, sequencing; the parent is a self-cleaving ribozyme.
For the variant A6U U9C G25A A138G A140G, the self-cleavage stood at 0.88.

A6U C63U A79G G122A: the self-cleavage was determined as 0.37.

On to A6G U85C U96A, for which the self-cleavage turned out to be 0.33.

For A6G C16U G60A A69G, the self-cleavage is 0.1.

In the case of A6G U13A U112C, the self-cleavage stood at 0.82.

In the case of A6G G89A A107G U115C A121G A141G, the self-cleavage came out at 0.24.

With U5C U52A A65G U96C U102C, the self-cleavage amounted to 0.

Consider A6G U96C U112C A117U, for which the self-cleavage was determined as 0.13.

For the variant A6G G55A A92G, the self-cleavage was determined as 0.05.

Turning to A6G U9A A43G U47C, the self-cleavage was 0.48.

As to U5C A42U U45A A141G, the self-cleavage was found to be 0.15.

Turning to U5C A69G U102A, the self-cleavage is 0.

A6G U46A A50G U62C U130C A142U: the self-cleavage was 0.42.

For A6G G8A U104C, the self-cleavage was 0.92.

With A6C A64G A65G A136U A140G, the self-cleavage was 1.23.

Take U5C U112C A121C A142G: the self-cleavage stood at 0.66.

A6U U81C U85A U91A: the self-cleavage was found to be 0.28.

With U5C U52A U73A A77C A94G, the self-cleavage worked out at 0.

As for A6G U45C G83A A117G, the self-cleavage was 0.75.

As to A6G C38U U87A, the self-cleavage was found to be 0.1.

A6C U130C A141G: the self-cleavage came to 1.91.

In the case of A6G U115C A140G, the self-cleavage turned out to be 1.91.

As for A6G U81C G82U, the self-cleavage stood at 0.6.

A6G U15C A138U: the self-cleavage turned out to be 1.58.

On to A6U A79G A124G, for which the self-cleavage was 0.48.

Turning to A6G U130A A140G, the self-cleavage came out at 0.92.

For U5C U81G U132A, the self-cleavage was found to be 1.22.

As to U5C U29C U102G, the self-cleavage was determined as 0.77.

With U5C A57U U85C, the self-cleavage was 0.48.

Regarding A6G A64C U132C, the self-cleavage was 0.88.

On to A6G A42G U46A A78U U96A, for which the self-cleavage is 0.08.

For A6G U46A G144U, the self-cleavage stood at 2.18.

With A6U U100C A138G, the self-cleavage stood at 2.3.

Regarding A6U A31U A121C, the self-cleavage amounted to 2.4.

As to A6G A64G A140G, the self-cleavage is 1.08.

U5C U9C A57G A138G: the self-cleavage is 0.71.

Regarding A6U U96A U134C, the self-cleavage stood at 0.05.

As to A6G G75A A77G, the self-cleavage was 1.01.

A6G U14C A67G: the self-cleavage worked out at 0.

With A6G A42G U87A, the self-cleavage came out at 0.44.

With A6U U23C U47C U96C, the self-cleavage amounted to 0.

Regarding U5C A31C U47C A50U C128U, the self-cleavage was 0.92.

With A6G U9C C19G, the self-cleavage was found to be 0.

In the case of U5C A42G U132C A138U, the self-cleavage stood at 1.15.

As to U5C U14C U47G A65G G75A C99U, the self-cleavage turned out to be 0.19.

With A6C U81C A138G, the self-cleavage turned out to be 0.

Take A6G A78G A94G: the self-cleavage was found to be 0.84.

With U5C G72A U102G U109A, the self-cleavage is 1.15.

Consider U5C A30U U85A U119A A124U A141G, for which the self-cleavage is 0.16.

For the variant A6G A64G G83A A124G G139C, the self-cleavage turned out to be 0.64.

As to U5C U96A U132C, the self-cleavage came out at 0.25.

U5C U26C U47A: the self-cleavage is 1.05.

On to U5C U85A A107G, for which the self-cleavage worked out at 0.

On to U5C A65G U81C U96A, for which the self-cleavage was found to be 0.

As to U5C U45C A94U A107G, the self-cleavage worked out at 0.92.

Turning to A6U A92G A142G, the self-cleavage turned out to be 0.14.

Regarding A6U A22G A129U U130C A140U, the self-cleavage amounted to 1.97.

Consider A6G U13A A65G A140G, for which the self-cleavage worked out at 0.

Turning to U5C A31U U109A G114A U132C G135A, the self-cleavage was 1.11.

Take U5C G72A U87G: the self-cleavage came out at 0.32.

Take A6G U45C U47C A77U U104C: the self-cleavage came out at 2.04.

On to A6G A124G U134C, for which the self-cleavage is 2.17.

On to A6G U52C A77G G126A, for which the self-cleavage turned out to be 0.79.

Consider A6G A31G U45C A57U A140G, for which the self-cleavage amounted to 0.42.

On to A6G U109A U132C, for which the self-cleavage is 1.48.

Take A6U G34U A65U A69G U132C: the self-cleavage came out at 0.35.

Turning to A6G A117U U119A U143G, the self-cleavage was determined as 1.05.

Regarding A6U U14A C128U, the self-cleavage was determined as 0.37.

Consider U5C C56A U130C A140G, for which the self-cleavage was found to be 0.16.

On to U5C U14C C61G U100C A141G, for which the self-cleavage amounted to 0.1.

Regarding U5C U87A U115C U130C, the self-cleavage stood at 0.1.

In the case of A6C U14C A107G A121U, the self-cleavage came out at 1.38.

Turning to A6U C63A G74U A78C U96C, the self-cleavage was determined as 0.07.

Turning to A6G A22G U119G, the self-cleavage stood at 1.69.

Regarding A6G G27A U47A C123U, the self-cleavage was 1.53.

U5G U9A A42U A65G: the self-cleavage was 0.15.

For A6U U9G U14C A43U A92G, the self-cleavage turned out to be 0.44.

A6G U9A U14C C37G A50G U85A A107G A142C: the self-cleavage worked out at 0.

Take U5C U73C U134A A138G: the self-cleavage came to 1.31.

With U5C A57G U143C, the self-cleavage was 1.48.

Turning to A6G G10A U47A U115C, the self-cleavage was 0.71.

As for A6G G33A G36C, the self-cleavage turned out to be 0.91.

On to A6G U12C A30U U100C A107G U108C, for which the self-cleavage was found to be 0.

Regarding A6G U23C U45C U87A, the self-cleavage came out at 0.48.

With A6G A78G A92U, the self-cleavage turned out to be 0.15.

On to A6U U26C A77U U85C, for which the self-cleavage was determined as 0.

A6G U13C G126U C128U U143A: the self-cleavage was 0.79.

For the variant U5G U13C G114U U119C, the self-cleavage is 0.52.

As for U5C U39A G127A, the self-cleavage was determined as 0.95.

With U5C G7A U47C U112C A138U, the self-cleavage was found to be 1.23.

As to U5C G44U A59G G137A, the self-cleavage amounted to 0.15.

Regarding A6G U13C A57U C66U A79U, the self-cleavage stood at 0.14.

On to A6G C19U U46C A136G, for which the self-cleavage worked out at 1.27.

Consider U5G U12C U20C A138G, for which the self-cleavage was determined as 1.18.

In the case of A6U G40A A69U U104C, the self-cleavage came to 0.

Regarding A6G C28U U45A A129U G139U, the self-cleavage came out at 0.66.

U5C U13A A43G U73A A78G: the self-cleavage was determined as 0.29.

For the variant U5C C71G A138G, the self-cleavage was found to be 0.8.

For A6G U9A U143C, the self-cleavage stood at 0.81.

Regarding A6G U14C A92G A138G, the self-cleavage came to 0.34.

As to U5C U102C G137U, the self-cleavage was 2.17.

In the case of U5C U14A A79C U104C, the self-cleavage was found to be 0.37.

For the variant U5C U12C A57G A69C G125U, the self-cleavage was found to be 0.46.

In the case of U5C U13C G82A A117G, the self-cleavage worked out at 1.21.

Turning to U5C C18U A78G, the self-cleavage came out at 0.86.

A6G U104A A141G: the self-cleavage was 0.99.

Consider U5C U45C A107G U108C, for which the self-cleavage came to 1.15.

As for U5C G75C A77C U96A, the self-cleavage was determined as 0.

Turning to A6G C38A A121G A142G, the self-cleavage came out at 0.54.

Turning to U5G U23C A136G, the self-cleavage was 1.97.

For A6G U14G G86A U112A A141U, the self-cleavage amounted to 0.14.

Consider U5C U47A A67G A129G, for which the self-cleavage was determined as 0.

A6G U119C A138G: the self-cleavage amounted to 0.89.

Turning to A6G G7U U14C A67G U109A A142G, the self-cleavage stood at 0.54.

As for U5C A92G U108C C131A A141G, the self-cleavage is 0.

Take U5G U9C U39G A79G: the self-cleavage stood at 2.63.

For A6G U47C A141G, the self-cleavage was 1.34.

Consider U5C U45C A117C G125C, for which the self-cleavage is 2.

Regarding A6G U14C U62C U87A U102C, the self-cleavage came out at 0.

On to U5C A50G U100A U108A U115A, for which the self-cleavage stood at 0.

In the case of A6U A129U A138G A141G, the self-cleavage is 1.44.

Regarding U5C U9G A30G G122A, the self-cleavage was determined as 0.58.

As for A6G A42G U119C, the self-cleavage stood at 1.02.

Take A6G U85C U100C: the self-cleavage came out at 1.31.

In the case of U5C U46A U132C, the self-cleavage amounted to 0.76.

Take U5G A59G U96A A107U G125U: the self-cleavage is 0.04.

As for U5C C19U U47C, the self-cleavage is 1.05.

As to U5C U12C U39A U45G A69G U132A A141G, the self-cleavage was 0.

In the case of A6C U23C U39C U119A, the self-cleavage was 0.

As for A6C U13A G33A A92G, the self-cleavage amounted to 0.32.

As to A6G U47A C101U U109A, the self-cleavage was 0.92.

On to U5C U130C A136G, for which the self-cleavage came out at 1.62.

In the case of A6G U13A U26A A31G U119C, the self-cleavage stood at 0.51.

Take U5G A50G A78U G82A U87A U119C A124G: the self-cleavage stood at 0.

Turning to U5C U12G U73A A142G, the self-cleavage stood at 1.31.

As to U5C U26C U29C G97C U132C, the self-cleavage stood at 0.46.

As for A6G U85A C133A, the self-cleavage turned out to be 0.14.

Regarding A6U C56A U143C, the self-cleavage turned out to be 0.03.

Take A6U A31U U132A: the self-cleavage amounted to 1.06.

For U5C U14C U73A, the self-cleavage was 1.3.

As to U5C U14C U46C U119C, the self-cleavage was found to be 0.63.

Turning to U5C A50U U73A, the self-cleavage came out at 1.21.

Take U5C U52C A117C: the self-cleavage was determined as 1.77.

Take A6G A94G A107U: the self-cleavage came to 1.45.

Take A6U U26A G35A: the self-cleavage is 1.15.

Turning to A6G U15C C28G U104C U115C, the self-cleavage amounted to 0.

As for A6G U12A A22G A50G, the self-cleavage is 1.04.

For A6G A77G U87C, the self-cleavage was 0.3.

As to U5C U62C A69G G75A U108C, the self-cleavage was found to be 0.18.

With A6G U47A A78G G125A, the self-cleavage is 1.04.

For the variant A6G U13C U73C C131A, the self-cleavage amounted to 1.75.

Consider A6G A79G U81C G83A A142G, for which the self-cleavage was found to be 1.59.

In the case of A6G U12G U20C A43G A50U U134C A141G, the self-cleavage is 1.15.

For the variant A6G C38U U47G C131A, the self-cleavage came to 0.7.

On to U5C U26A U85A, for which the self-cleavage amounted to 0.25.

For A6U U96C C98U, the self-cleavage stood at 0.29.

In the case of A6G U81C U87C, the self-cleavage was found to be 0.

For U5C U13C U26A A136G, the self-cleavage stood at 0.18.

For A6U U15G U39A U73C U85A U134A A138U, the self-cleavage was 0.18.

With U5C A77G U102C C110A U112A, the self-cleavage came out at 2.13.

On to U5C U112C A117G, for which the self-cleavage is 2.3.

For the variant A6G U45C A94U U132C A142G, the self-cleavage was 0.48.

Turning to U5C U23C U45C, the self-cleavage came to 0.71.

On to U5C A50U U62C C71G, for which the self-cleavage was 0.44.

With A6G U39C U102C, the self-cleavage worked out at 0.

As to U5C G40A A140C, the self-cleavage was found to be 1.28.

Take A6U U9C U14C G48A: the self-cleavage turned out to be 0.85.
